This passage reports binding signal results from publication PMC12136788.

Positions count from the first letter of the chain named. This is one part of the list.

The chains are these.
B1: chr7:134027783:134027784:-_ENSMUSG00000059981_ENSMUST00000071268|mus_mus|FALSE|FALSE (ssRNA)
RNA: GGGAGUUCUACAGUCCGACGAUCGGAUGAACCCCGGAUAUUGGUGCACACAGGGUCCUGAAUCCCAGGUAUUUUAAAUUCUAUAAAACAGAGACCCAGGUUUGUAAAGGUUGGGACUUUGGGUCCCAGAUAUCUGAUAUACGACAACAGAGGAUUGAGCAUCA
B2: chr7:56126341:56126342:+_ENSG00000146731_ENST00000540286|hu_mus|hu_hu_hu_mus_True|38_38 (ssRNA)
RNA: GGGAGUUCUACAGUCCGACGAUCCAUGUUUCUCCUCUUGGCUCUGCGCAGAGCUACGAUCCCUUCUUUCGCAAGGGCAUCUAAGGAAAAGGGGUCAAUUCCCUUUUGAUUAAUAACGACAAAUCCUUUAUCUGAGUCACCACACAACAGAGGAUUGAGCAUCA
B3: chr20:17587764:17587765:+_ENSG00000125868_ENST00000474024|hu_hu|motif|central (ssRNA)
RNA: GGGAGUUCUACAGUCCGACGAUCGUGGCACUGAAUAAUCUACACAGGGCAUCCUUCAAAGGCUACAAUUAAGGAUCCACCGGACUUUUCAGCAAUACAAGCCCGAUUGAGAUCUUCUGGUCCAUUUGCUUGACAUUCAUGUUUCAACAGAGGAUUGAGCAUCA
B4: chr3:41280641:41280642:+_ENSG00000168036_ENST00000349496|hu_hu|motif|central (ssRNA)
RNA: GGGAGUUCUACAGUCCGACGAUCCAUGGGGUCCAUACCCAAGGCAUCCUGGCCAUAUCCACCAGAGUGAAAAGAACGAUAGCGGGGAUCAUCCUGGCGAUAUCCAAGGGGUUCUCCCUGGGCACCAAUAUCAAGUCCAAGAUCCAACAGAGGAUUGAGCAUCA
B5: chr20:32246340:32246341:-_ENSG00000125967_ENST00000246190|hu_hu|FALSE|FALSE (ssRNA)
RNA: GGGAGUUCUACAGUCCGACGAUCUCUCCAGGAGGCCUCAUCCUGCCAGAACUCAUACAGGGUGAAGGAGGCACCGUCCAGCAUCUUCUGGGCGGACACAUGCAGACAAUGGCUCUGGGCCCCUGUGAAGUCCACAUAGCAGCGCAACAGAGGAUUGAGCAUCA
B6: chr8:3623242:3623243:+_ENSMUSG00000087687_ENSMUST00000156380|mus_hu|motif|central (ssRNA)
RNA: GGGAGUUCUACAGUCCGACGAUCCUGCUGGGCGUCGCGAAGGAGCUUCUCCUCCCGCCGCUUCCGUAACCUCUCUUUGAAUUCCUCGGUCUCUUGAAGCUUCUCAGGUGGCCACAGCUCCCUCUUGCGCUGUAUGACAUCGUCCAACAGAGGAUUGAGCAUCA
B7: chr6:40197388:40197389:+_ENSMUSG00000057716_ENSMUST00000061740|mus_mus|mus_mus_mus_hu_False|98_98 (ssRNA)
RNA: GGGAGUUCUACAGUCCGACGAUCGAGACACUGGGGUGGAUGGCACCCACCUCUGUUUGGGUGCUAGCCACUAAGACUGUUAUUUUGGGAUUCAUGGCCUUGAAUAUCAAGAGGGAAAGGAAGAGGAUGGAAAGAGUCAAGAGUCAACAGAGGAUUGAGCAUCA
B8: chr3:57569700:57569701:-_ENSG00000168374_ENST00000303436|hu_hu|FALSE|FALSE (ssRNA)
RNA: GGGAGUUCUACAGUCCGACGAUCCACAAAAAUAAGACCCUGGGUAUUCUGGAAGUAAUGCUUCCAGAGAGGCCUAAUUCUAUCUUGACCACCAACAUCCCAUACUGUGAAACAAAUGUUCUUAUAUUCUACUGUUUCCACAUUCAACAGAGGAUUGAGCAUCA
B9: 60593859_60597351_2893_3pUTR_ENSMUSG00000049323_ENSMUST00000056907|mouse|control|control (ssRNA)
RNA: GGGAGUUCUACAGUCCGACGAUCCAGCGUAGGGUCUUGCUGUCCAGGUCCAGGAUGCUUGUAUAACGGCUGUAACGGCUCAGGGUAUGGAGGGUACCCACAUUGGCAGGAGAGGCCACUCUUUGUAGGCCAAUAAGCUUCCACCAACAGAGGAUUGAGCAUCA
B10: chr13:108984363:108984364:+_ENSMUSG00000021694_ENSMUST00000054835|mus_hu|FALSE|FALSE (ssRNA)
RNA: GGGAGUUCUACAGUCCGACGAUCCCCACAUUUAGGGCUAAUUUAGCUGUCAGGAAUAGACCAUACAGUUGAAAAAAACACAGUCUCAUUUAAAAAGUUUCAGCAGAGACAAAAAGGUACUAAAGAUGAUAUUCAUCCUUCUUCCAACAGAGGAUUGAGCAUCA
B11: chr15:98516890:98516891:+_ENSG00000140450_ENST00000268042|hu_mus|motif|central (ssRNA)
RNA: GGGAGUUCUACAGUCCGACGAUCAAUAAAAAUUUUAAAAAGCAAGUGAACUUACCAAAAAAAAAAACACAACCUUUGCCGGCUGAGUUUCUUAUUGUGCAAAACAGAGACACAGAAAGUAAAGUUGUGCUCCAGGGGAAGGGACAACAGAGGAUUGAGCAUCA
B12: chr8:26941818:26941819:-_ENSMUSG00000031575_ENSMUST00000166078|mus_hu|FALSE|FALSE (ssRNA)
RNA: GGGAGUUCUACAGUCCGACGAUCACUAGUAGACACAGCACUGCUCUGUUUUUGGUUGUCAUAAGCAGGACCAAUGUUACUAAGGUCCUGAUCCAAAAGUCCAAAUUUGGGGUAAUCUUCUUCUGGAUCUUUACUGCCUGGAUCCAACAGAGGAUUGAGCAUCA
B13: chr7:5008886:5008887:+_ENSMUSG00000035228_ENSMUST00000045543|mus_hu|FALSE|FALSE (ssRNA)
RNA: GGGAGUUCUACAGUCCGACGAUCCUCAUCGCGGGCCACUGCCAGGCCUAAGGAAGAGGCAGGUGCAGGGGGAAACUGCCCCAACUUCCCAGGGUAGGAGGAGGUCCAGCCCGUGCGCGCUGCCUCCUCUACCUUCGGGGCCCCCAACAGAGGAUUGAGCAUCA
B14: chr6:114281168:114281169:-_ENSG00000196591_ENST00000368632|hu_hu|hu_hu_hu_mus_True|38_88 (ssRNA)
RNA: GGGAGUUCUACAGUCCGACGAUCUUCCAUUUUUCGGUAUAAACCAUAAUUUAACAGCAAGUUAUGAGUCAUCCGGAUUCUAUGAGGCUUCAUGGGAUGACCCUGUCCAUAAUAAUAAUUGCCAAUAUCACCAUCAUAGUAGUACAACAGAGGAUUGAGCAUCA
B15: chr2:35989780:35989781:-_ENSMUSG00000026889_ENSMUST00000028251|mus_mus|motif|central (ssRNA)
RNA: GGGAGUUCUACAGUCCGACGAUCGCAUUCUCCAGGGGAAGAGUUUUGGUUUCUGUUUCCAUCAAUCUCUGAGAAAUACUGCGGGCCUCAGAGCUGUGCCCUCAGCUCAUGCCCCGAAAGCAGCUUCCGACGCUGGGGUCCGAGCAACAGAGGAUUGAGCAUCA
B16: chr4:76721835:76721836:+_ENSG00000138768_ENST00000264904|hu_mus|hu_hu_hu_mus_True|38_68 (ssRNA)
RNA: GGGAGUUCUACAGUCCGACGAUCGUUUGGCUGGGGUUUCUGAGACGCUCUGGAAUAUAACUCAUGUUGCUAAUAAAAUCCUAGUUUCUCUAUGAAAUCUCUUUGCCCAAUCCUCUUCUCUAUUAGUUGCUUUAGUUUCUCUUUCAACAGAGGAUUGAGCAUCA
B17: chr6:114281168:114281169:-_ENSG00000196591_ENST00000368632|hu_hu|hu_hu_hu_mus_True|78_78 (ssRNA)
RNA: B14 RNA with A53G, A66G, U105G
B18: chr7:75932113:75932114:+_ENSG00000106211_ENST00000248553|hu_hu|hu_hu_hu_mus_False|78_78 (ssRNA)
RNA: GGGAGUUCUACAGUCCGACGAUCCUGCGACCACUCAUCGGGCAACCGGGGCACCCCGAAGGCCUGGUCGAAGAGGCGGCUGUGUGCAGGGUACCAGUCCCGGAAUGGUUCCCAGCUCGGGCUCCGCAGCAGCGAGAAGGGCACCAACAGAGGAUUGAGCAUCA
B19: chr8:113366719:113366720:-_ENSMUSG00000033732_ENSMUST00000042012|mus_hu|motif|central (ssRNA)
RNA: GGGAGUUCUACAGUCCGACGAUCCAUAUUCUUAGAUGGCUGGUAUUCCAAAAUAACAAUUCGACCAGAGUCACUGCCAACGGCAAUGUAGUCUUUGGUGCCACCUGUCAGCCUAAAGGCCAUGAGUGACCGGAUAACACCGAACAACAGAGGAUUGAGCAUCA
B20: chr2:9724522:9724523:-_ENSG00000134308_ENST00000238081|hu_hu|motif|central (ssRNA)
RNA: GGGAGUUCUACAGUCCGACGAUCGGCUUUUUUGGGACUACAGUCAAUGAUUAGCAACACACAAUAGUGGUCCAACUCUCGGAAUAACAAUCACUAGACAAACUGGACACCCUCUCACAUGUGCACAAAUCUGCAUGGAAAAGUCAACAGAGGAUUGAGCAUCA
B21: chr1:174052150:174052151:+_ENSMUSG00000026553_ENSMUST00000135192|mus_mus|motif|central (ssRNA)
RNA: GGGAGUUCUACAGUCCGACGAUCCCUUCUGUCUCGUACUGGAAUUGACAGGAAGGUGGUGGGAAGGGAGGAGUAUAUACGGAGAAUCUGAUAAACAAAUGGCCAGCACAUAGUUUUCAUUGUUCCUUGGAAGGCCUAAGCUGACAACAGAGGAUUGAGCAUCA
B22: chr7:65705475:65705476:+_ENSG00000169902_ENST00000304842|hu_hu|hu_hu_hu_mus_True|98_98 (ssRNA)
RNA: GGGAGUUCUACAGUCCGACGAUCUCUAUUCGGUGAUGGCAUUCCAUGGCAUGCUGGCCCAGGUAAAACACGGUCACAGAACUAAUCACCAGACACGCCAAGAGUAAGUUCUGCUUCAGCUUCCCAACCAUCUUGAUGUGGUUACAACAGAGGAUUGAGCAUCA

This experiment has as its target T1, UNK ZnF1-3 (human, UniProt Q9C0B0 31-174).
T1 sequence: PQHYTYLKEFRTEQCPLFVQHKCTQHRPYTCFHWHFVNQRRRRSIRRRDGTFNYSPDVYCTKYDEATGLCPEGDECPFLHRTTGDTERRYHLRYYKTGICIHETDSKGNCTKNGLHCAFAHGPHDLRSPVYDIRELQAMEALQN
Description: nsRBNS (natural sequence RNA bind-n-seq); RBNS binding buffer (assumed for nsRBNS): 25 mM Tris pH 7.5, 150 mM KCl, 3 mM MgCl2, 0.01% Triton X-100, 500 ug/ml BSA, 20 U/ml SUPERase-In, 4 C; UNK is unkempt and MSI1 is Musashi-1; names of the RNAs are library labels; protein concentration not given here; high values mean tight binding.
In the case of B1, the binding signal worked out at 0.957 enrichment R.
For B2, the binding signal was found to be 0.873 enrichment R.
The molecule B3 gave a binding signal of 0.826 enrichment R.
Under B4 stands 1.32 enrichment R; under B5, 0.856 enrichment R.
In turn, B6 yielded a binding signal of 0.373 enrichment R.
Under B7 stands 1.69 enrichment R.
Under B8 stands 1.04 enrichment R.
The value for B9 was 1.01 enrichment R; that for B10 was 0.929 enrichment R; that for B11 was 1.38 enrichment R.
Molecule B12 registered a binding signal of 0.652 enrichment R.
The value for B13 was 0.569 enrichment R; that for B14 was 0.918 enrichment R.
Under B15 stands 0.754 enrichment R; under B16, 0.449 enrichment R; under B17, 0.636 enrichment R.
As to B18, the binding signal came to 0.63 enrichment R.
The value for B19 was 0.556 enrichment R; that for B20 was 1.6 enrichment R; that for B21 was 1.28 enrichment R.
Under B22 stands 0.571 enrichment R.
